# Measured values: the antibiotic and cytotoxicity screens of Wong et al. (2023)
# This is one part of the list.
# Key:
# HSkMC = human skeletal muscle cells; assay: cytotoxicity call (relative viability < 0.9); conditions: 10 µM
# HepG2 = assay: cytotoxicity call (relative viability < 0.9); conditions: 10 µM
# S. aureus RN4220 = assay: growth inhibition call (relative growth <= 0.2); conditions: 50 µM
SMILES,cytotoxicity call (HSkMC),cytotoxicity call (HepG2),growth inhibition call (S. aureus RN4220)
C[C@H]1CN([C@@H](C)CO)S(=O)(=O)c2ccc(C#CC3CC3)cc2O[C@@H]1CN(C)C(=O)C1CCCCC1,inactive,inactive,inactive
C[C@@H]1CCCCO[C@@H](CN(C)CC2CCCCC2)[C@@H](C)CN([C@@H](C)CO)C(=O)c2cc(NC(=O)Nc3ccc(F)cc3)ccc2O1,inactive,inactive,inactive
O=C(CCCCCNC(=O)OCc1ccc(CO[C@@H]2C[C@H](c3ccc(Br)cc3)C=C(C(=O)N3CCN(Cc4ccccc4)CC3)O2)cc1)NO,inactive,inactive,inactive
C[C@@H]1CCCCO[C@H](CN(C)S(=O)(=O)c2cn(C)cn2)[C@@H](C)CN([C@@H](C)CO)C(=O)c2cc(NC(=O)CCCN(C)C)ccc2O1,inactive,inactive,inactive
C[C@@H]1CN([C@@H](C)CO)C(=O)Cc2cc(NS(=O)(=O)c3cn(C)cn3)ccc2O[C@@H]1CN(C)S(=O)(=O)c1ccc(F)cc1,inactive,inactive,inactive
Cc1noc(C)c1S(=O)(=O)N(C)C[C@H]1Oc2c(NC(=O)NC(C)C)cccc2C(=O)N([C@H](C)CO)C[C@H]1C,inactive,inactive,inactive
CCn1c(N)c(C(N)=O)sc1=S,inactive,inactive,inactive
CCS(=O)(=O)N[C@@H]1C=C[C@H](CC(=O)NCc2ccc(Cl)cc2)O[C@H]1CO,inactive,inactive,inactive
COc1cccc(-c2ccc3c(c2)O[C@H](CN(C)C(=O)C2CCOCC2)[C@H](C)CN([C@@H](C)CO)S3(=O)=O)c1,inactive,inactive,inactive
C[C@H]1CN([C@@H](C)CO)C(=O)c2cc(C3=CCCC3)cnc2O[C@@H]1CN(C)C(=O)c1ccc2c(c1)OCO2,inactive,inactive,inactive
Cc1ccc(S(=O)(=O)N(C)C[C@H]2Oc3ccc(NC(=O)c4ccncc4)cc3CC(=O)N([C@H](C)CO)C[C@@H]2C)cc1,inactive,inactive,inactive
C[C@H](CO)N1C[C@H](C)[C@@H](CN(C)Cc2ccccc2)Oc2ccc(NS(=O)(=O)c3cn(C)cn3)cc2C1=O,inactive,inactive,inactive
COc1ccc(S(=O)(=O)N(C)C[C@H]2OCCCC[C@H](C)Oc3ccc(NC(=O)Nc4ccc(C(F)(F)F)cc4)cc3C(=O)N([C@@H](C)CO)C[C@H]2C)cc1,inactive,inactive,inactive
C[C@H]1CN([C@@H](C)CO)C(=O)Cc2cc(NS(=O)(=O)c3cn(C)cn3)ccc2O[C@@H]1CN(C)S(=O)(=O)c1ccccc1,inactive,inactive,inactive
Cc1noc(C)c1S(=O)(=O)Nc1cccc2c1O[C@H](CN(C)S(=O)(=O)c1cccs1)[C@H](C)CN([C@H](C)CO)C2=O,inactive,inactive,inactive
COc1cccc(C#Cc2ccc3c(c2)O[C@@H](CN(C)S(=O)(=O)c2ccccc2F)[C@@H](C)CN([C@H](C)CO)S3(=O)=O)c1,inactive,inactive,inactive
COc1ccc(S(=O)(=O)N(C)C[C@H]2Oc3c(cccc3N(C)C)C(=O)N([C@@H](C)CO)C[C@@H]2C)cc1,inactive,inactive,inactive
CCc1ccc(Nc2c3c(nc4ccccc24)CCCC3)cc1,inactive,active,inactive
C=CCC[C@H](Cc1ccc(F)cc1)C(=O)O[C@@H](CNC(=O)[C@@H](CC=C)CC(=O)N(CCO)Cc1ccccc1)c1ccccc1,active,active,inactive

SMILES,cytotoxicity call (HSkMC),cytotoxicity call (HepG2),growth inhibition call (S. aureus RN4220)
Cc1ccc(S(=O)(=O)N(C)C[C@@H]2OCCCC[C@@H](C)Oc3ccc(NC(=O)Nc4ccccc4)cc3C(=O)N([C@H](C)CO)C[C@@H]2C)cc1,inactive,inactive,inactive
C[C@@H]1CN([C@H](C)CO)C(=O)c2cccc(NS(=O)(=O)c3ccc(F)cc3)c2O[C@@H]1CN(C)C(=O)Nc1cccc2ccccc12,inactive,inactive,inactive
CC(=O)c1cc(Cl)c(C)cc1O,inactive,inactive,inactive
C[C@H](CO)N1C[C@H](C)[C@@H](CN(C)C(=O)Nc2ccc(F)cc2)Oc2ccc(NC(=O)CCN3CCOCC3)cc2CC1=O,inactive,inactive,inactive
C=CC(C1=CC(=O)C(OC)=CC1=O)c1ccc(O)cc1 (stereo not drawn),inactive,active,inactive
CC(C)CC#Cc1ccc2c(c1)O[C@H](CN(C)C(=O)c1cnccn1)[C@H](C)CN([C@H](C)CO)S2(=O)=O,inactive,inactive,inactive
Cc1noc(C)c1NC(=O)Nc1cccc2c1O[C@H](CN(C)Cc1ccc(C(=O)Nc3ccccc3N)cc1)[C@@H](C)CN([C@H](C)CO)C2=O,inactive,inactive,inactive
C[C@H]1CN([C@@H](C)CO)C(=O)Cc2cc(NS(=O)(=O)c3ccc(F)cc3)ccc2O[C@@H]1CN(C)Cc1ccc(Cl)c(Cl)c1,inactive,active,inactive
C=CC[C@@H](CC(=O)N(CCO)Cc1ccccc1)C(=O)N[C@H](COC(=O)[C@@H](CC=C)Cc1ccc(F)cc1)c1ccccc1,inactive,inactive,inactive
C[C@H]1CN([C@@H](C)CO)C(=O)c2cc(NC(=O)Nc3cccc4ccccc34)ccc2O[C@H]1CN(C)Cc1ccc(C(F)(F)F)cc1,active,inactive,inactive
N#C/C(=C\c1ccc(O)c(O)c1)C(N)=O,inactive,active,inactive
C[C@@H]1CCCCO[C@H](CN(C)C(=O)NC2CCCCC2)[C@@H](C)CN([C@@H](C)CO)C(=O)c2cc(NC(=O)Cc3ccccc3)ccc2O1,inactive,inactive,inactive
COc1ccc(S(=O)(=O)Nc2ccc3c(c2)CC(=O)N([C@H](C)CO)C[C@@H](C)[C@@H](CN(C)Cc2ccc(Cl)c(Cl)c2)O3)cc1,active,active,inactive
COc1ccc(CN(C)C[C@@H]2Oc3ccc(NC(=O)Nc4cccc5ccccc45)cc3CC(=O)N([C@@H](C)CO)C[C@@H]2C)cc1,active,active,inactive
O=C(C[C@H]1C[C@H]2c3cc(NS(=O)(=O)c4ccc(F)cc4)ccc3O[C@H]2[C@H](CO)O1)NC1CCCC1,inactive,inactive,inactive
COc1ccccc1NC(=O)N(C)C[C@@H]1OCc2ccccc2-c2c(n(C)c3ccccc23)C(=O)N([C@@H](C)CO)C[C@@H]1C,inactive,inactive,inactive
N#CCON1C(=O)c2ccccc2C1=O,inactive,inactive,inactive
Cc1noc(C)c1S(=O)(=O)Nc1cccc2c1O[C@H](CN(C)S(=O)(=O)c1ccc(F)cc1)[C@H](C)CN([C@@H](C)CO)C2=O,inactive,inactive,inactive
C[C@@H]1CN([C@@H](C)CO)C(=O)c2cc(NC(=O)Nc3ccc4c(c3)OCO4)ccc2O[C@@H](C)CCCCO[C@@H]1CN(C)C(=O)Cc1ccccc1,inactive,inactive,inactive

SMILES,cytotoxicity call (HSkMC),cytotoxicity call (HepG2),growth inhibition call (S. aureus RN4220)
COCC(=O)N1C[C@H](C)[C@H](OC)CN(C)C(=O)c2ccc(NC(=O)c3ccc(F)cc3)cc2OC[C@H]1C,inactive,inactive,inactive
C[C@H]1CN([C@@H](C)CO)C(=O)c2cc(C#CCN(C)C)cnc2O[C@H]1CN(C)C(=O)Nc1cccc(F)c1,inactive,inactive,inactive
COc1ccc2c3c([nH]c2c1)[C@H](CO)N(C[C@]13CN(Cc2nccs2)C1)S(=O)(=O)c1ccc(cc1)C,inactive,inactive,inactive
C[C@H]1CCCCO[C@@H](CN(C)C(=O)NC2CCCCC2)[C@@H](C)CN([C@@H](C)CO)C(=O)c2cc(NC(=O)Nc3ccc(F)cc3)ccc2O1,inactive,active,inactive
COc1ccc(S(=O)(=O)Nc2ccc3c(c2)C(=O)N([C@@H](C)CO)C[C@@H](C)[C@H](CN(C)C(=O)CCC(F)(F)F)OCCCC[C@@H](C)O3)cc1,inactive,inactive,inactive
NC(=S)c1cnccn1,inactive,inactive,inactive
C[C@@H]1CCCCO[C@@H](CN(C)C(=O)NC2CCCCC2)[C@H](C)CN([C@@H](C)CO)C(=O)c2cc(NC(=O)Cc3ccccc3)ccc2O1,inactive,inactive,inactive
C[C@H]1CN([C@@H](C)CO)S(=O)(=O)c2ccc(-c3cccnc3)cc2O[C@H]1CN(C)C(=O)c1ccc2c(c1)OCO2,inactive,inactive,inactive
C[C@H]1CCCCO[C@H](CN(C)C(=O)Nc2ccc(F)cc2)[C@@H](C)CN([C@@H](C)CO)C(=O)c2cc(NC(=O)Nc3cccc4ccccc34)ccc2O1,inactive,inactive,inactive
Cc1ncc([N+](=O)[O-])n1C[C@@H](O)CCl,inactive,inactive,inactive
O=C(C[C@H]1C[C@@H]2c3cc(NC(=O)Cc4ccncc4)ccc3O[C@@H]2[C@H](CO)O1)NCCN1CCCCC1,inactive,inactive,inactive
Cn1cnc(S(=O)(=O)N[C@H]2C=C[C@@H](CC(=O)Nc3ccccc3)O[C@H]2CO)c1,inactive,inactive,inactive
C[C@@H]1CN([C@H](C)CO)C(=O)c2cccc(NC(=O)c3ccncc3)c2O[C@@H]1CN(C)C(=O)Nc1ccc2c(c1)OCO2,inactive,inactive,inactive
C[C@@H]1CN([C@@H](C)CO)C(=O)c2cc(NC(=O)Nc3ccccc3)ccc2O[C@@H]1CN(C)CC1CCCCC1,inactive,inactive,inactive
CNC(=O)[C@H]1C[C@@H]2CN(Cc3cnn(C)c3)C[C@@H]2N1C,inactive,inactive,inactive
N[C@@H](CC(=O)N1CCn2c(nnc2C(F)(F)F)C1)Cc1cc(F)c(F)cc1F,inactive,inactive,inactive
C[C@H](CO)N1C[C@H](C)[C@H](CN(C)C(=O)C2CC2)Oc2cc(-c3ccc(C(=O)N(C)C)cc3)ccc2S1(=O)=O,inactive,inactive,inactive
C[C@@H]1CN([C@@H](C)CO)C(=O)c2cc(NC(=O)Cc3ccccc3)ccc2O[C@@H](C)CCCCO[C@H]1CN(C)S(=O)(=O)c1cccs1,inactive,inactive,inactive
